First the molecules themselves.
T1: RBFOX1 RRM RbFoxmut (Fox-RRM*) (Homo sapiens, UniProt Q9NWB1 109-208, R118D;E147R;N151S;E152T)
T1 sequence: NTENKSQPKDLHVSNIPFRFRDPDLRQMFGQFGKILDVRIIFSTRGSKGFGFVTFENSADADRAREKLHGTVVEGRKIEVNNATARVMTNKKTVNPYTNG

B1: CUUCAAC (DNA:RNA)
RNA: GGGAGACCGGAAUUCAGAUUGUCCCUUCAACUUAAAUCCCGUCGUAGCCACCA
DNA 1: CAATCTGAATTCCGGTCTCCC
DNA 2: TGGTGGCTACGACGGGATT
B2: GUAAACC (DNA:RNA)
RNA: B1 RNA with C25G, U27A, C28A, A30C
DNA 1: CAATCTGAATTCCGGTCTCCC
DNA 2: TGGTGGCTACGACGGGATT
B3: GCUGAAG (DNA:RNA)
RNA: B1 RNA with C25G, U26C, C28G, C31G
DNA 1: CAATCTGAATTCCGGTCTCCC
DNA 2: TGGTGGCTACGACGGGATT
B4: CUUGGGC (DNA:RNA)
RNA: B1 RNA with C28G, A29G, A30G
DNA 1: CAATCTGAATTCCGGTCTCCC
DNA 2: TGGTGGCTACGACGGGATT
B5: UCAAGUU (DNA:RNA)
RNA: GGGAGACCGGAAUUCAGAUUGUCCUCAAGUUUUAAAUCCCGUCGUAGCCACCA
DNA 1: CAATCTGAATTCCGGTCTCCC
DNA 2: TGGTGGCTACGACGGGATT
B6: CUAGGCU (DNA:RNA)
RNA: B5 RNA with U25C, C26U, A28G, U30C
DNA 1: CAATCTGAATTCCGGTCTCCC
DNA 2: TGGTGGCTACGACGGGATT
B7: GCUGCAC (DNA:RNA)
RNA: B1 RNA with C25G, U26C, C28G, A29C
DNA 1: CAATCTGAATTCCGGTCTCCC
DNA 2: TGGTGGCTACGACGGGATT
B8: UUGAUAG (DNA:RNA)
RNA: B1 RNA with C25U, U27G, C28A, A29U, C31G
DNA 1: CAATCTGAATTCCGGTCTCCC
DNA 2: TGGTGGCTACGACGGGATT
B9: CUUCCAG (DNA:RNA)
RNA: B1 RNA with A29C, C31G
DNA 1: CAATCTGAATTCCGGTCTCCC
DNA 2: TGGTGGCTACGACGGGATT
B10: GUAAGGG (DNA:RNA)
RNA: B5 RNA with U25G, C26U, U30G, U31G
DNA 1: CAATCTGAATTCCGGTCTCCC
DNA 2: TGGTGGCTACGACGGGATT
B11: CUAUAUG (DNA:RNA)
RNA: B1 RNA with U27A, C28U, A30U, C31G
DNA 1: CAATCTGAATTCCGGTCTCCC
DNA 2: TGGTGGCTACGACGGGATT
B12: UACAACU (DNA:RNA)
RNA: B5 RNA with C26A, A27C, G29A, U30C
DNA 1: CAATCTGAATTCCGGTCTCCC
DNA 2: TGGTGGCTACGACGGGATT
B13: CUGAGAC (DNA:RNA)
RNA: B1 RNA with U27G, C28A, A29G
DNA 1: CAATCTGAATTCCGGTCTCCC
DNA 2: TGGTGGCTACGACGGGATT
B14: ACUGUAA (DNA:RNA)
RNA: B1 RNA with C25A, U26C, C28G, A29U, C31A
DNA 1: CAATCTGAATTCCGGTCTCCC
DNA 2: TGGTGGCTACGACGGGATT
B15: CCCGGGU (DNA:RNA)
RNA: B5 RNA with U25C, A27C, A28G, U30G
DNA 1: CAATCTGAATTCCGGTCTCCC
DNA 2: TGGTGGCTACGACGGGATT
B16: AAUCUGA (DNA:RNA)
RNA: B1 RNA with C25A, U26A, A29U, A30G, C31A
DNA 1: CAATCTGAATTCCGGTCTCCC
DNA 2: TGGTGGCTACGACGGGATT
B17: CGAUCUA (DNA:RNA)
RNA: B5 RNA with U25C, C26G, A28U, G29C, U31A
DNA 1: CAATCTGAATTCCGGTCTCCC
DNA 2: TGGTGGCTACGACGGGATT
B18: GUAGCUC (DNA:RNA)
RNA: B1 RNA with C25G, U27A, C28G, A29C, A30U
DNA 1: CAATCTGAATTCCGGTCTCCC
DNA 2: TGGTGGCTACGACGGGATT
B19: UUUACGA (DNA:RNA)
RNA: B1 RNA with C25U, C28A, A29C, A30G, C31A
DNA 1: CAATCTGAATTCCGGTCTCCC
DNA 2: TGGTGGCTACGACGGGATT
B20: GCUCACC (DNA:RNA)
RNA: B1 RNA with C25G, U26C, A30C
DNA 1: CAATCTGAATTCCGGTCTCCC
DNA 2: TGGTGGCTACGACGGGATT

Substitutions are numbered along the chain they refer to; changes in the protein carry UniProt numbers. This is one part of the list.

This assay deals with T1, RBFOX1 RRM RbFoxmut (Fox-RRM*). Put plainly: EMSA; HiTS-Eq, 1 nM pool, 10 min; buffer printed only for the single-RNA assays: 10 mM Tris pH 7.5, 150 mM NaCl, 3.4 mM EDTA, 0.001% NP-40, 30 C. Conditions: tags: His6 N-terminal (pET28a); label: 5' 32P. In outline: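 Purified RbFox RRM, wild type or mutant, was incubated for 10 min in 50 µL with 1 nM of a 5′-radiolabelled RNA pool carrying 7 randomized nucleotides, whose flanks were annealed to DNA oligonucleotides, over a series of increasing protein concentrations. Unbound RNA was resolved on 8% native PAGE, cut out, reverse-transcribed, barcoded by PCR and sequenced on an Illumina HiSeq 2500. Relative association constants were derived from changes in read counts for each RNA species versus the control reaction and normalised to the cognate motif.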
For the molecule B1, the binding signal is 0.0743 KA relative to UGCAUGU.

Consider B2, for which the binding signal was 0.0731 KA relative to UGCAUGU.

Take B3: the binding signal was 0.0834 KA relative to UGCAUGU.

As for B4, the binding signal is 0.0946 KA relative to UGCAUGU.

For the molecule B5, the binding signal is 0.0934 KA relative to UGCAUGU.

Consider B6, for which the binding signal is 0.0903 KA relative to UGCAUGU.

Take B7: the binding signal was 0.111 KA relative to UGCAUGU.

Consider B8, for which the binding signal was 0.0947 KA relative to UGCAUGU.

Regarding B9, the binding signal was 0.0967 KA relative to UGCAUGU.

B10: the binding signal was 0.0569 KA relative to UGCAUGU.

In the case of B11, the binding signal is 0.132 KA relative to UGCAUGU.

B12: the binding signal was 0.0592 KA relative to UGCAUGU.

Take B13: the binding signal was 0.0947 KA relative to UGCAUGU.

In the case of B14, the binding signal was 0.132 KA relative to UGCAUGU.

B15: the binding signal was 0.0885 KA relative to UGCAUGU.

With B16, the binding signal was 0.04 KA relative to UGCAUGU.

Consider B17, for which the binding signal was 0.0692 KA relative to UGCAUGU.

Regarding B18, the binding signal is 0.071 KA relative to UGCAUGU.

Consider B19, for which the binding signal is 0.0783 KA relative to UGCAUGU.

For the molecule B20, the binding signal is 0.0793 KA relative to UGCAUGU.

The values above are taken from PMC9911399, “Two distinct binding modes provide the RNA-binding protein RbFox with extraordinary sequence specificity”.
